Test results: a collection of fitness landscapes (doi:10.1126/science.1257360)
This is one part of the list.

B1: PhoQ; a variant is named by its letters at X, in order, P23837 (parent)
chain: MKKLLRLFFPLSLRVRFLLATAAVVLVLSLAYGMVALIGYSVSFDKTTFRLLRGESNLFYTLAKWENNKLHVELPENIDKQSPTMTLIYDENGQLLWAQRDVPWLMKMIQPDWLKSNGFHEIEADVNDTSLLLSGDHSIQQQLQEVREDDDDAEMTHSVAVNVYPATSRMPKLTIVVVDTIPVELKSSYMVWSWFIYVLSANLLLVIPLLWVAAWWSLRPIEALAKEVRELEEHNRELLNPATTRELTSLVRNLNRLLKSERERYDKYRTTLTDLTHSLKTPLXXLQXXLRSLRSEKMSVSDAEPVMLEQISRISQQIGYYLHRASMRGGTLLSRELHPVAPLLDNLTSALNKVYQRKGVNISLDISPEISFVGEQNDFVEVMGNVLDNACKYCLEFVEISARQTDEHLYIVVEDDGPGIPLSKREVIFDRGQRVDTLRPGQGVGLAVAREITEQYEGKIVAGESMLGGARMEVIFGRQHSAPKDE

Variants of: B1
Assay: enrichment ratio after two sorts for PhoP signalling (ratio (wild type AVST 3.29)); higher = more functional
Conditions: with PhoP (E. coli)

| Variant | enrichment ratio |
| --- | --- |
| VHNQ | ≤ 0.25 |
| YFWP | ≤ 0.25 |
| ARFC | ≤ 0.25 |
| GDTS | ≤ 0.25 |
| PLPF | ≤ 0.25 |
| EKFS | ≤ 0.25 |
| LDCT | ≤ 0.25 |
| QLHL | 2.28 |
| LLNG | ≤ 0.25 |
| DGHY | ≤ 0.25 |
| PLQF | ≤ 0.25 |
| LECK | 1.26 |
| RNWR | ≤ 0.25 |
| VEQH | ≤ 0.25 |
| IQKA | ≤ 0.25 |
| RVTH | ≤ 0.25 |
| HAQF | ≤ 0.25 |
| GPSR | ≤ 0.25 |
| DMVC | ≤ 0.25 |
| TPCN | ≤ 0.25 |
| KGPP | ≤ 0.25 |
| TQRK | ≤ 0.25 |
| WLAD | ≤ 0.25 |
| SMIT | ≤ 0.25 |
| GNRW | ≤ 0.25 |

| Variant | enrichment ratio |
| --- | --- |
| NSEP | ≤ 0.25 |
| QYVC | ≤ 0.25 |
| NWEA | ≤ 0.25 |
| TIPL | ≤ 0.25 |
| NCSM | ≤ 0.25 |
| IFYT | ≤ 0.25 |
| SRKD | ≤ 0.25 |
| KMHQ | ≤ 0.25 |
| RWPT | ≤ 0.25 |
| KPVC | ≤ 0.25 |
| RNLQ | ≤ 0.25 |
| LGKC | ≤ 0.25 |
| NYPW | ≤ 0.25 |
| ETQY | ≤ 0.25 |
| TQYF | ≤ 0.25 |
| ISGD | ≤ 0.25 |
| ANMW | ≤ 0.25 |
| HAAA | ≤ 0.25 |
| FLNF | ≤ 0.25 |
| YWVL | ≤ 0.25 |
| RPYD | ≤ 0.25 |
| PYKW | ≤ 0.25 |
| VRYK | ≤ 0.25 |
| LIWI | ≤ 0.25 |
| FLLL | 1.51 |

| Variant | enrichment ratio |
| --- | --- |
| FWNA | ≤ 0.25 |
| FQYQ | ≤ 0.25 |
| LPLK | ≤ 0.25 |
| FSWV | ≤ 0.25 |
| TYRF | 0.834 |
| YDTW | ≤ 0.25 |
| ADLP | ≤ 0.25 |
| DSEW | ≤ 0.25 |
| MGKQ | ≤ 0.25 |
| SAEN | ≤ 0.25 |
| HKFN | ≤ 0.25 |
| HYIF | ≤ 0.25 |
| NRWT | ≤ 0.25 |
| DGTR | ≤ 0.25 |
| VEWD | ≤ 0.25 |
| HQCL | ≤ 0.25 |
| RSMI | ≤ 0.25 |
| WTYV | ≤ 0.25 |
| FPWR | ≤ 0.25 |
| DHMP | ≤ 0.25 |
| NMFQ | ≤ 0.25 |
| HQRV | ≤ 0.25 |
| ALLG | 2.68 |
| IYID | ≤ 0.25 |
| SFRY | ≤ 0.25 |

| Variant | enrichment ratio |
| --- | --- |
| HDTA | ≤ 0.25 |
| GCYG | ≤ 0.25 |
| LKLA | ≤ 0.25 |
| MYVA | ≤ 0.25 |
| KTVM | ≤ 0.25 |
| VQWP | ≤ 0.25 |
| IRLF | ≤ 0.25 |
| RAEW | ≤ 0.25 |
| WLNR | ≤ 0.25 |
| VAQQ | ≤ 0.25 |
| SHNR | ≤ 0.25 |
| MLIG | ≤ 0.25 |
| PPNW | ≤ 0.25 |
| FIYH | ≤ 0.25 |
| ASAV | 11.5 |
| TAMC | 14.6 |
| SVVV | ≤ 0.25 |
| ATWI | ≤ 0.25 |
| GEWT | ≤ 0.25 |
| VLRE | ≤ 0.25 |
| PARP | ≤ 0.25 |
| KCTW | ≤ 0.25 |
| KNMT | ≤ 0.25 |
| NYRA | ≤ 0.25 |
| RSPD | ≤ 0.25 |

| Variant | enrichment ratio |
| --- | --- |
| HDSY | ≤ 0.25 |
| NILT | ≤ 0.25 |
| SSSY | 8.81 |
| KCFS | ≤ 0.25 |
| VKTP | ≤ 0.25 |
| EYSM | ≤ 0.25 |
| IQTR | ≤ 0.25 |
| APYH | ≤ 0.25 |
| GVPM | ≤ 0.25 |
| NLGF | ≤ 0.25 |
| MRHQ | ≤ 0.25 |
| WYIP | ≤ 0.25 |
| EYFV | ≤ 0.25 |
| LEHI | ≤ 0.25 |
| PEAH | ≤ 0.25 |
| YQPD | ≤ 0.25 |
| AFCA | ≤ 0.25 |
| DTEF | ≤ 0.25 |
| YYIS | ≤ 0.25 |
| SFSW | ≤ 0.25 |
| THYK | ≤ 0.25 |
| APQH | ≤ 0.25 |
| ILDH | ≤ 0.25 |
| DRQK | ≤ 0.25 |
| APFH | ≤ 0.25 |

| Variant | enrichment ratio |
| --- | --- |
| YYSY | ≤ 0.25 |
| EGFM | ≤ 0.25 |
| CSLH | ≤ 0.25 |
| RYGH | ≤ 0.25 |
| AEAH | 7.03 |
| PSLL | ≤ 0.25 |
| KVGL | ≤ 0.25 |
| EVKW | ≤ 0.25 |
| RRCL | ≤ 0.25 |
| RHKT | ≤ 0.25 |
| LPSN | ≤ 0.25 |
| SHIK | ≤ 0.25 |
| ASQT | ≤ 0.25 |
| SFRH | ≤ 0.25 |
| MAHR | ≤ 0.25 |
| LCPW | ≤ 0.25 |
| GCDW | ≤ 0.25 |
| TEPA | ≤ 0.25 |
| EFDH | ≤ 0.25 |
| PFKT | ≤ 0.25 |
| SQNH | ≤ 0.25 |
| WLWL | ≤ 0.25 |
| WCWS | ≤ 0.25 |
| GLPI | ≤ 0.25 |
| FARS | ≤ 0.25 |

| Variant | enrichment ratio |
| --- | --- |
| RPYL | ≤ 0.25 |
| ATYQ | 0.887 |
| FCAA | ≤ 0.25 |
| RENI | ≤ 0.25 |
| YVVA | ≤ 0.25 |
| SGHT | ≤ 0.25 |
| WKSK | ≤ 0.25 |
| KLPA | ≤ 0.25 |
| TRIR | ≤ 0.25 |
| FAFV | ≤ 0.25 |
| LNEP | ≤ 0.25 |
| VLSR | ≤ 0.25 |
| FWCG | ≤ 0.25 |
| WMYE | ≤ 0.25 |
| WVLV | ≤ 0.25 |
| AFKR | ≤ 0.25 |
| SVES | ≤ 0.25 |
| FFFA | ≤ 0.25 |
| IDAH | ≤ 0.25 |
| NDRQ | ≤ 0.25 |
| SGHG | ≤ 0.25 |
| SFHL | ≤ 0.25 |
| MHLK | ≤ 0.25 |
| VHVK | ≤ 0.25 |
| NLDC | ≤ 0.25 |

| Variant | enrichment ratio |
| --- | --- |
| RGRP | ≤ 0.25 |
| TTCY | 4.01 |
| TRDT | ≤ 0.25 |
| NHVC | ≤ 0.25 |
| HWSK | ≤ 0.25 |
| LPQM | ≤ 0.25 |
| HLWK | ≤ 0.25 |
| GVIH | ≤ 0.25 |
| SQHQ | ≤ 0.25 |
| SSNS | 0.835 |
| RPMF | ≤ 0.25 |
| DMQN | ≤ 0.25 |
| TMHY | 3.73 |
| TRAV | ≤ 0.25 |
| MKHY | ≤ 0.25 |
| SYDF | ≤ 0.25 |
| LEGF | ≤ 0.25 |
| ANMD | ≤ 0.25 |
| DNFA | ≤ 0.25 |
| FACD | ≤ 0.25 |
